Test results published in the supplement of paper PMC4604168 (melanoma cell lines).
Some of the results follow. Repeats are few or missing, and single values can be far off.

These molecules were tested on A375 (assay: cell count relative to DMSO control; melanoma cells; higher = more viable cells). Settings: library dose: standard library concentration; 72 h.
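Also: cells treated in 1,536-well plates, then fixed and DAPI-stained, with nuclei counted from automated high-throughput microscope images.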

| Compound | cell count [%] |
| --- | --- |
| CS(=O)(=O)CCNCc1ccc(-c2ccc3ncnc(Nc4ccc(OCc5cccc(F)c5)c(Cl)c4)c3c2)o1 [lapatinib] + Cn1c(Nc2ccc(C(F)(F)F)cc2)nc2cc(Oc3ccnc(-c4ncc(C(F)(F)F)[nH]4)c3)ccc21 [CHIR265] (first compound 4 µM, partner dose 0.4 µM) | 56.7 |
| C[C@@H](Oc1cc(-c2cnn(C3CCNCC3)c2)cnc1N)c1c(Cl)ccc(F)c1Cl [Crizotinib] + NC(=O)Nc1cc(-c2cccc(F)c2)sc1C(=O)N[C@H]1CCCNC1 [AZD7762] (first compound 1 µM, partner dose 0.1 µM) | 46.6 |
| CN1CCN(c2ccc3nc(-c4c(N)c5c(F)cccc5[nH]c4=O)[nH]c3c2)CC1 [Dovitinib] + OCc1c[nH]c2ccccc12 [Indole-3-carbinol] (first compound 0.5 µM, partner dose 4 µM) | 88.9 |
| CN1CCN(c2ccc3nc(-c4c(N)c5c(F)cccc5[nH]c4=O)[nH]c3c2)CC1 [Dovitinib] + NC(=O)Nc1cc(-c2cccc(F)c2)sc1C(=O)N[C@H]1CCCNC1 [AZD7762] (first compound 0.5 µM, partner dose 0.1 µM) | 62 |
| CN1CCN(c2ccc3nc(-c4c(N)c5c(F)cccc5[nH]c4=O)[nH]c3c2)CC1 [Dovitinib] + CNC(=O)c1cc(Oc2ccc(NC(=O)Nc3ccc(Cl)c(C(F)(F)F)c3)cc2)ccn1 [sorafenib] (first compound 0.5 µM, partner dose 2 µM) | 61.9 |
| CNC(=O)c1cc(Oc2ccc(NC(=O)Nc3ccc(Cl)c(C(F)(F)F)c3)cc2)ccn1 [sorafenib] + C=CCn1c(=O)c2cnc(Nc3ccc(N4CCN(C)CC4)cc3)nc2n1-c1cccc(C(C)(C)O)n1 [MK1775] (first compound 2 µM, partner dose 0.1 µM) | 60.3 |
| C[C@@H](Oc1cc(-c2cnn(C3CCNCC3)c2)cnc1N)c1c(Cl)ccc(F)c1Cl [Crizotinib] + Cn1nnc2c(C(N)=O)ncn2c1=O [temozolomide] (first compound 1 µM, partner dose 10 µM) | 97.4 |
| CS(=O)(=O)CCNCc1ccc(-c2ccc3ncnc(Nc4ccc(OCc5cccc(F)c5)c(Cl)c4)c3c2)o1 [lapatinib] + C#Cc1cccc(Nc2ncnc3cc(OCCOC)c(OCCOC)cc23)c1 [erlotinib] (first compound 4 µM, partner dose 4 µM) | 153 |
| C[C@@H](Oc1cc(-c2cnn(C3CCNCC3)c2)cnc1N)c1c(Cl)ccc(F)c1Cl [Crizotinib] + OCCn1cc(-c2cnc3nnn(Cc4ccc5ncccc5c4)c3n2)cn1 [PF04217903] (first compound 1 µM, partner dose 5 µM) | 82.4 |
| C=CCNC1=C2C[C@@H](C)C[C@H](OC)[C@H](O)[C@@H](C)/C=C(\C)[C@H](OC(N)=O)[C@@H](OC)/C=C\C=C(/C)C(=O)NC(=CC1=O)C2=O [Tanespimycin] + COCC[n+]1c2c(n(Cc3cnccn3)c1C)C(=O)c1ccccc1C2=O [YM155] (first compound 0.01 µM, partner dose 0.002 µM) | 84.6 |
| CN1CCN(c2ccc3nc(-c4c(N)c5c(F)cccc5[nH]c4=O)[nH]c3c2)CC1 [Dovitinib] + CC1(C)NC(=O)N(c2ccc([N+](=O)[O-])c(C(F)(F)F)c2)C1=O [nilutamide] (first compound 0.5 µM, partner dose 5 µM) | 78.4 |
| C[C@@H](Oc1cc(-c2cnn(C3CCNCC3)c2)cnc1N)c1c(Cl)ccc(F)c1Cl [Crizotinib] + O=c1cc(-c2cccc3c2Sc2ccccc2S3)oc(N2CCOCC2)c1 [KU55933] (first compound 1 µM, partner dose 5 µM) | 115 |
| CNC(=O)c1cc(Oc2ccc(NC(=O)Nc3ccc(Cl)c(C(F)(F)F)c3)cc2)ccn1 [sorafenib] + CS(=O)(=O)CCNCc1ccc(-c2ccc3ncnc(Nc4ccc(OCc5cccc(F)c5)c(Cl)c4)c3c2)o1 [lapatinib] (first compound 2 µM, partner dose 4 µM) | 176 |
| CN1CCN(c2ccc3nc(-c4c(N)c5c(F)cccc5[nH]c4=O)[nH]c3c2)CC1 [Dovitinib] + COc1ccc(Cl)c(Nc2nc3ccccc3nc2NS(=O)(=O)c2cccc(NC(=O)C(C)(C)N)c2)c1 [XL147] (first compound 0.5 µM, partner dose 4 µM) | 76.7 |
| C=CCNC1=C2C[C@@H](C)C[C@H](OC)[C@H](O)[C@@H](C)/C=C(\C)[C@H](OC(N)=O)[C@@H](OC)/C=C\C=C(/C)C(=O)NC(=CC1=O)C2=O [Tanespimycin] + c1cc(-c2cnn3cc(-c4ccc(OCCN5CCCCC5)cc4)cnc23)ccn1 [Dorsomorphin] (first compound 0.01 µM, partner dose 2 µM) | 76.4 |
| C[C@@H](Oc1cc(-c2cnn(C3CCNCC3)c2)cnc1N)c1c(Cl)ccc(F)c1Cl [Crizotinib] + C[C@]1(c2nc3c(C(N)=O)cccc3[nH]2)CCCN1 [Veliparib] (first compound 1 µM, partner dose 7 µM) | 84.8 |
| C[C@@H](Oc1cc(-c2cnn(C3CCNCC3)c2)cnc1N)c1c(Cl)ccc(F)c1Cl [Crizotinib] + O=C(Nc1cccc(Cl)c1)Nc1ncc(CCNc2ncnc3ccsc23)s1 [SNS314] (first compound 1 µM, partner dose 0.004 µM) | 98.6 |
| CS(=O)(=O)CCNCc1ccc(-c2ccc3ncnc(Nc4ccc(OCc5cccc(F)c5)c(Cl)c4)c3c2)o1 [lapatinib] + Nc1ccn([C@@H]2O[C@H](CO)[C@@H](O)C2(F)F)c(=O)n1 [gemcitabine] (first compound 4 µM, partner dose 0.002 µM) | 105 |
| C=CCNC1=C2C[C@@H](C)C[C@H](OC)[C@H](O)[C@@H](C)/C=C(\C)[C@H](OC(N)=O)[C@@H](OC)/C=C\C=C(/C)C(=O)NC(=CC1=O)C2=O [Tanespimycin] + Cc1cc([N+](=O)[O-])ccc1NS(=O)(=O)c1cc(Cl)ccc1Cl [FH535] (first compound 0.01 µM, partner dose 5 µM) | 83.5 |
| CN1CCN(c2ccc3nc(-c4c(N)c5c(F)cccc5[nH]c4=O)[nH]c3c2)CC1 [Dovitinib] + CO[C@@H]1[C@H](N(C)C(=O)c2ccccc2)C[C@H]2O[C@]1(C)n1c3ccccc3c3c4c(c5c6ccccc6n2c5c31)C(=O)NC4 [Midostaurin] (first compound 0.5 µM, partner dose 0.4 µM) | 74 |
| CNC(=O)c1cc(Oc2ccc(NC(=O)Nc3ccc(Cl)c(C(F)(F)F)c3)cc2)ccn1 [sorafenib] + CC(C)CCN1c2nc(Nc3cc(F)c(O)c(F)c3)ncc2N(C)C(=O)C1C [BID1870] (first compound 2 µM, partner dose 1 µM) | 112 |
| C[C@@H](Oc1cc(-c2cnn(C3CCNCC3)c2)cnc1N)c1c(Cl)ccc(F)c1Cl [Crizotinib] + Cn1c(Nc2ccc(C(F)(F)F)cc2)nc2cc(Oc3ccnc(-c4ncc(C(F)(F)F)[nH]4)c3)ccc21 [CHIR265] (first compound 1 µM, partner dose 0.4 µM) | 94.5 |
| CS(=O)(=O)CCNCc1ccc(-c2ccc3ncnc(Nc4ccc(OCc5cccc(F)c5)c(Cl)c4)c3c2)o1 [lapatinib] + O=C(Nc1cccc(Cl)c1)Nc1ncc(CCNc2ncnc3ccsc23)s1 [SNS314] (first compound 4 µM, partner dose 0.004 µM) | 87.4 |
| CN1CCN(c2ccc3nc(-c4c(N)c5c(F)cccc5[nH]c4=O)[nH]c3c2)CC1 [Dovitinib] + CN(NC(=O)CC(=O)NN(C)C(=S)c1ccccc1)C(=S)c1ccccc1 [STA4783] (first compound 0.5 µM, partner dose 0.03 µM) | 82.9 |
| C=CCNC1=C2C[C@@H](C)C[C@H](OC)[C@H](O)[C@@H](C)/C=C(\C)[C@H](OC(N)=O)[C@@H](OC)/C=C\C=C(/C)C(=O)NC(=CC1=O)C2=O [Tanespimycin] + O=C(O)C(=O)Nc1sc2c(c1C(=O)O)CCNC2 [TCS401] (first compound 0.01 µM, partner dose 8.33333 µM) | 188 |
| C[C@@H](Oc1cc(-c2cnn(C3CCNCC3)c2)cnc1N)c1c(Cl)ccc(F)c1Cl [Crizotinib] + Cc1nc(Nc2ncc(C(=O)Nc3c(C)cccc3Cl)s2)cc(N2CCN(CCO)CC2)n1 [dasatanib] (first compound 1 µM, partner dose 0.02 µM) | 65.5 |
